The list shows a part of the results.
test system: S. aureus RN4220; assay: growth inhibition call (relative growth <= 0.2); details: 50 µM

Growth inhibition call, inactive:
CC(C)CC(=O)C(=O)O, C[C@H](CO)N1C[C@H](C)[C@H](CN(C)Cc2ccc3c(c2)OCO3)Oc2c(NC(=O)c3ccc(-c4nccs4)cc3)cccc2C1=O, N[C@H]1CCOC2(CCCC2)C1, C[C@@H]1CN([C@@H](C)CO)C(=O)c2cc(NC(=O)Nc3ccc(C(F)(F)F)cc3)ccc2O[C@@H](C)CCCCO[C@H]1CN(C)C(=O)C1CCCCC1, C[C@H](CO)N1C[C@H](C)[C@H](CN(C)Cc2ccc3c(c2)OCO3)OCCCC[C@H](C)Oc2ccc(NS(=O)(=O)c3ccc(F)cc3)cc2C1=O, Cc1ccc(S(=O)(=O)Nc2ccc3c(c2)C(=O)N([C@@H](C)CO)C[C@@H](C)[C@@H](CN(C)Cc2ccc(C(F)(F)F)cc2)OCCCC[C@@H](C)O3)cc1, C=C1C(C2(C)C=CC(=O)C(C)(C)C2CC(=O)OC)CCC2(C)C(c3ccoc3)OC(=O)C3OC132 (configuration not stated), CO[C@@H]1CN(C)C(=O)c2ccc(NC(=O)c3cnccn3)cc2OC[C@@H](C)N(C(=O)c2cnccn2)C[C@H]1C, COc1ccc(NC(=O)Nc2ccc3c(c2)[C@H]2C[C@@H](CC(=O)NCc4ccncc4)O[C@@H](CO)[C@H]2O3)cc1, C[C@H]1CN([C@@H](C)CO)S(=O)(=O)c2ccc(C#CC(C)(C)O)cc2O[C@H]1CN(C)Cc1ccncc1, COc1ccc(NC(=O)Nc2ccc3c(c2)C(=O)N([C@H](C)CO)C[C@H](C)[C@H](CN(C)S(=O)(=O)c2ccccc2)OCCCC[C@H](C)O3)cc1, CCCC(=O)Nc1ccc2c(c1)OC[C@@H](C)N(S(=O)(=O)c1cn(C)cn1)C[C@@H](C)[C@H](OC)CN(C)C2=O, C[C@@H]1CN([C@@H](C)CO)C(=O)c2cccc(NC(=O)Nc3ccc(F)cc3)c2O[C@H]1CN(C)Cc1ccc(-c2ccccc2)cc1, Cc1noc(C)c1NC(=O)N(C)C[C@@H]1Oc2ccc(NS(=O)(=O)c3cn(C)cn3)cc2CC(=O)N([C@@H](C)CO)C[C@@H]1C, C[C@@H]1CN([C@H](C)CO)C(=O)c2cccc(NC(=O)Nc3ccc(C(F)(F)F)cc3)c2O[C@@H]1CN(C)C(=O)Nc1ccccc1, O=c1[nH]c(=S)nc2n(CCO)[nH]cc1-2, Cc1noc(C)c1NC(=O)Nc1ccc2c(c1)C(=O)N([C@H](C)CO)C[C@H](C)[C@H](CN(C)C(=O)Nc1ccccc1)OCCCC[C@@H](C)O2
